# Screen size: about 310,000 compounds; about 2,200 (0.71%) showed an effect of 50% or more. Effects have a minus sign here. The list shows a part of the results.
# Target: human ether-à-go-go-related gene (hERG) potassium channel (human, UniProt Q12809)
# Test: primary screen, population patch clamp on CHO cells stably expressing hERG
# human ether-à-go-go-related gene (hERG) potassium channel, sequence (Q12809 whole entry, looked up): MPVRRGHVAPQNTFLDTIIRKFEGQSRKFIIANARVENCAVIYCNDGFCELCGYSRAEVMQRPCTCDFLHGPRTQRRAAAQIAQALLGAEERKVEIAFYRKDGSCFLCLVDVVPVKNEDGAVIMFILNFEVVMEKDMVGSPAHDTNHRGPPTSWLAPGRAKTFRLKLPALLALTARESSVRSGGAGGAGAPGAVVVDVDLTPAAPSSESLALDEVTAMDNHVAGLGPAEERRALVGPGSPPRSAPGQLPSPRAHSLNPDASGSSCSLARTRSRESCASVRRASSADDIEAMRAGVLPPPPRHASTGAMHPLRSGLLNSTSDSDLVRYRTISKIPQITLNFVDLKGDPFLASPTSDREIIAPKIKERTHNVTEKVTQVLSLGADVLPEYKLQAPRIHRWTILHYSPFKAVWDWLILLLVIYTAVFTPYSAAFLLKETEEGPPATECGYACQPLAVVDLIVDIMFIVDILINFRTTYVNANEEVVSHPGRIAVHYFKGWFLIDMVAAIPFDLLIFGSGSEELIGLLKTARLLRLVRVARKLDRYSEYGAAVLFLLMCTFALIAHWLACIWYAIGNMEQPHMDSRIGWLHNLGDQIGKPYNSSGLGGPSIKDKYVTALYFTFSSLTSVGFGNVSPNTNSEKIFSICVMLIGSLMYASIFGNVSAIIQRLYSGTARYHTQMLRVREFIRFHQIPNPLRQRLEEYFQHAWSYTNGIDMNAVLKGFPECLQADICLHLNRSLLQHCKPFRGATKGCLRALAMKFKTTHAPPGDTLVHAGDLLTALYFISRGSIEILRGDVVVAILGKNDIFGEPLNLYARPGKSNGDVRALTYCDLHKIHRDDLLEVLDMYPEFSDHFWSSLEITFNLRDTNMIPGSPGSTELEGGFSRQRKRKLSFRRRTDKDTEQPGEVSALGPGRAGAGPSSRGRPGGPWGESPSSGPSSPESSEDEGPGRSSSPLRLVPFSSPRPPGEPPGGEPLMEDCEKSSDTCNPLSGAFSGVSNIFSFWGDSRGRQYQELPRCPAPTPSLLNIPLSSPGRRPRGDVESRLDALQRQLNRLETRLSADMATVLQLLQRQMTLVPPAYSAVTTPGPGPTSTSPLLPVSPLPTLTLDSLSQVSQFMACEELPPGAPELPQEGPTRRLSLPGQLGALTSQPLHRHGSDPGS
row,SMILES,"hERG current change (%, negative = inhibition) at 1uM"
1,O=C(c1cccnc1)N1CCN(Cc2ccc3c(c2)OCO3)CC1,1.99%
2,COc1ccc(C(=O)/C=C/Nc2ccc(S(=O)(=O)Nc3nc(C)cc(C)n3)cc2)cc1OC,8.31%
3,O=C(NCCC1=CCCCC1)c1ccc(CN2CCOCC2)cc1,8.26%
4,COc1cc2[nH]c(=S)nc(NCc3ccc(Cl)cc3)c2cc1OC,11.4%
5,CC(C)c1ccc2oc(=O)cc(CN3CCOCC3)c2c1,23.4%
6,Cc1ccccc1CS(=O)(=O)CC(O)CN1CCCC1=O (centres unmarked),7.74%
7,Cc1ccc(S(=O)(=O)N(C)C)cc1NC(=O)COC(=O)CNC(=O)c1cccs1,7.33%
8,CCOc1ccccc1NC(=O)CSc1nnc(CNC(=O)COc2ccc(Cl)cc2)o1,-0.0939%
9,CC(C)OCCCNC(=O)CN1C(=O)COc2ccc(S(=O)(=O)N3CCCCCC3)cc21,8.64%
10,C/C(=N/NC(=O)c1ccc2c(c1)OCO2)c1cccc([N+](=O)[O-])c1,1.98%
11,COc1ccc(S(=O)(=O)N(C)c2ccc(C(N)=O)cc2)cc1,-3.05%
12,COC(=O)c1cccc(N2C(=O)c3ccccc3S2(=O)=O)c1,9.01%
13,CN1CCc2c1nc1ccccc1c2N.O=C(O)c1cc([N+](=O)[O-])ccc1Cl,7.96%
14,CC1C(=O)OC(c2ccc(Br)cc2)C(C)(C)C1=O (centres unmarked),13.3%
15,CCCn1nnc(NC(=S)NC(=O)c2ccc(-c3ccc(Br)cc3)o2)n1,9.11%
16,COc1ccc(C(=O)NCCC2=CCCCC2)cc1[N+](=O)[O-],7.6%
17,O=C(c1cc(-c2ccncc2)nc2ccccc12)N1CCN(c2ccccn2)CC1,-64%
18,NC(=O)c1ccccc1NC(=O)/C=C/c1ccc(Cl)cc1,-5.42%
19,O=C(CN1CCN(c2ccccc2)CC1)Nc1ccccc1C(F)(F)F,7.22%

row,SMILES,"hERG current change (%, negative = inhibition) at 1uM"
1,COc1ccc(C(=O)Nc2ccccc2C)cc1S(=O)(=O)N1CCOCC1,9.59%
2,CCCCCCNC(=O)CCc1nc2cccnc2n1Cc1ccc(OC)cc1,-1.38%
3,O=C(Nc1c2c(nn1-c1ccccc1)CS(=O)(=O)C2)c1cc2ccccc2o1,-1.86%
4,O=C(O)C1C2C=CC3(O2)C1C(=O)N1c2ccccc2COC13 (centres unmarked),14.4%
5,Cc1ccc(C(=O)NCCc2nnc3ccc(SCC(=O)Nc4cc(C)on4)nn23)cc1,8.91%
6,COc1cc(C(=O)NCC(c2ccco2)N2CCc3ccccc32)cc(OC)c1OC (centres unmarked),5%
7,CN(C)c1ccc(NC(=O)C(=O)NCCOc2ccccc2)cc1,11.8%
8,O=C1CSC(=Nc2cc(Cl)ccc2Cl)N1,2.55%
9,CCOc1ccc(-n2c(SCC(N)=O)nc3sc4c(c3c2=O)CCN(C)C4)cc1,14%
10,CC(=O)c1cccc(NC(=O)COC(=O)c2ccc3c(c2)OCO3)c1,12.8%
11,COC(=O)c1cncc(C)c1,7.18%
12,COc1ccc(NC(=O)Cn2nc(Cc3cccnc3)c3ccccc3c2=O)cc1OC,3.13%
13,NC(=O)c1ccccc1OCc1nnc(-c2ccccc2Br)o1,6.59%
14,Cc1ccccc1C(=O)Nc1ccc(N(C)C)c2ccccc12,5.3%
15,O=C(CN1C(=O)C2C3c4ccccc4C(c4ccccc43)C2C1=O)Nc1cccc(C(=O)O)c1 (centres unmarked),-0.218%
16,O=[N+]([O-])c1cccc(/C=N/Nc2nnc(-c3ccccc3)c(-c3ccccc3)n2)c1,9.39%
17,O=C(CSc1nnc(-c2ccccn2)n1-c1ccccc1)Nc1ccc2c(c1)OCO2,10.2%
18,CC1CCc2c(nc3ncnn3c2N2CCN(c3ccccc3F)CC2)C1 (centres unmarked),-4.64%
19,CC(C(=O)N1CCc2ccccc2C1)N(c1ccccc1)S(C)(=O)=O (centres unmarked),11.6%

row,SMILES,"hERG current change (%, negative = inhibition) at 1uM"
1,O=C1CCCC(O)=C1N=Nc1cccc(C(=O)O)c1,4.8%
2,Fc1ccc(-n2c(=S)[nH]c3cccnc32)cc1,17.8%
3,COc1ccc2c(c1)C1(Nc3ccccc3-c3nc4ccccc4n31)C(=O)N2 (centres unmarked),1.05%
4,CC(C)c1ccc(CN(C)CC(O)c2ccccc2)cc1.O=C(O)C(=O)O (centres unmarked),2.85%
5,COc1cccc(/C=N/NC(=O)C(=O)N2CCCC2)c1,-0.775%
6,Cc1cc2c(C)cc(=O)oc2c2c1NCCC2,-0.317%
7,Cc1c(-c2ccccc2)n[nH]c1C(=O)NN,8.85%
8,COc1cccc(/C=C/C(=O)OCC(=O)N(C)CC(=O)Nc2ccccc2Cl)c1OC,3.61%
9,CC/C(=N\NC(=O)CNC(=O)/C=C/c1ccc(OC)cc1)c1ccccc1,14.8%
10,CN(Cc1ccon1)C(=O)CC1C(=O)NCCN1Cc1ccc(Cl)c(F)c1 (centres unmarked),5.43%
11,O=C(N/N=C/c1ccccc1)c1ccco1,9.48%
12,CCOc1cc(/C=C2/NC(=O)NC2=O)cc([N+](=O)[O-])c1O,15.7%
13,Cc1occc1C(=O)Nc1ccc(S(N)(=O)=O)cc1,6.89%
14,CCN(CC)S(=O)(=O)c1cc(C(=O)NC2CCCCC2)ccc1C,-7.75%
15,Cc1ccc(-c2noc(CN(C(=O)CCN3C(=O)c4ccccc4C3=O)C(C)C)n2)cc1,-3.67%
16,CC1(c2ccccc2)NC(=O)N(CC(=O)Nc2nnc(C3CC3)s2)C1=O (centres unmarked),13.5%
17,COc1cc(/C=N/NC(=S)Nc2cccc(Cl)c2C)ccc1OCC(=O)N1CC(C)OC(C)C1 (centres unmarked),-0.501%
18,Cc1cc(N2CCOCC2)c2c(N)c(C)cc(C)c2n1,-13.2%

# Source: article PMC4336329 (PLoS ONE, 2015)
